{
  "source": "paper PMC3873466",
  "about": "(PLoS ONE, 2013)",
  "assay_in_all_cases": "biochemical",
  "key": {"[1]": {"molecular_target": "E. faecalis ParE (full length) (Enterococcus faecalis, UniProt H7C794)", "sequence (H7C794 whole entry)": "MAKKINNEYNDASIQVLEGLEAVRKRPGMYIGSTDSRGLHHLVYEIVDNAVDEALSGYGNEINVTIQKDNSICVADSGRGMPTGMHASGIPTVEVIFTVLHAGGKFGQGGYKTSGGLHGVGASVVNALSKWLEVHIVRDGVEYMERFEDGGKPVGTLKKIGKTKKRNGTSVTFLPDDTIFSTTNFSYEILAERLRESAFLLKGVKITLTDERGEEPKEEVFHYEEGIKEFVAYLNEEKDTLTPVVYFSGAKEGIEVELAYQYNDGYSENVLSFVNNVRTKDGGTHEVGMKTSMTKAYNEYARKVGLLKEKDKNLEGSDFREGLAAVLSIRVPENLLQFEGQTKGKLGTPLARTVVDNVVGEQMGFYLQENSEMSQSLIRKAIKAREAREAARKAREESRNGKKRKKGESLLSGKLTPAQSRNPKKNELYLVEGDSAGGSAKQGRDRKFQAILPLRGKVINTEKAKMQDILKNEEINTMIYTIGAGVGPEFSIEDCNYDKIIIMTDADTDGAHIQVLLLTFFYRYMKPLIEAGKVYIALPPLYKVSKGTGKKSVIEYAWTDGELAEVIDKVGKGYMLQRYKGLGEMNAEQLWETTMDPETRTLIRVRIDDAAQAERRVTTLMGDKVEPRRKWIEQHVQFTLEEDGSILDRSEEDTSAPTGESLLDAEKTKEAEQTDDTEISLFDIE"}, "[2]": {"molecular_target": "E. coli ParE (full length) (Escherichia coli, UniProt P20083)", "sequence (P20083 whole entry)": "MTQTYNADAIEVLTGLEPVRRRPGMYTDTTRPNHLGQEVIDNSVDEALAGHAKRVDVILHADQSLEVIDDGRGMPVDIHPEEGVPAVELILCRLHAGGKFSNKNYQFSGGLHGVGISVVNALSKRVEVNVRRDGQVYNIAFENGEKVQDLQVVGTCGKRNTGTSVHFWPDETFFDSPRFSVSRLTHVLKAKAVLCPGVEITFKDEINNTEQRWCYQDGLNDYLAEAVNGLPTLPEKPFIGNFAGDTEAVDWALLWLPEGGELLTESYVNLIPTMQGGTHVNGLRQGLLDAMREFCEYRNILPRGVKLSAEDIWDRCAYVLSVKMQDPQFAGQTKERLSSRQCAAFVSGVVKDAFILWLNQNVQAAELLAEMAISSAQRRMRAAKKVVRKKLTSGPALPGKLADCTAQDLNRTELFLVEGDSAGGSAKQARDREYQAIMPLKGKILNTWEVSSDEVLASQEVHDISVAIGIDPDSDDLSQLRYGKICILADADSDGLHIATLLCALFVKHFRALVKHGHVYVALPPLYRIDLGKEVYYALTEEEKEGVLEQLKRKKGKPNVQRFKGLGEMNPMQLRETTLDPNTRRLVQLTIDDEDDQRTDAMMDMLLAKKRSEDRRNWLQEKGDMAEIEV"}, "[3]": {"molecular_target": "E. faecalis GyrB (full length) (Enterococcus faecalis, UniProt Q839Z1)", "sequence (Q839Z1 whole entry)": "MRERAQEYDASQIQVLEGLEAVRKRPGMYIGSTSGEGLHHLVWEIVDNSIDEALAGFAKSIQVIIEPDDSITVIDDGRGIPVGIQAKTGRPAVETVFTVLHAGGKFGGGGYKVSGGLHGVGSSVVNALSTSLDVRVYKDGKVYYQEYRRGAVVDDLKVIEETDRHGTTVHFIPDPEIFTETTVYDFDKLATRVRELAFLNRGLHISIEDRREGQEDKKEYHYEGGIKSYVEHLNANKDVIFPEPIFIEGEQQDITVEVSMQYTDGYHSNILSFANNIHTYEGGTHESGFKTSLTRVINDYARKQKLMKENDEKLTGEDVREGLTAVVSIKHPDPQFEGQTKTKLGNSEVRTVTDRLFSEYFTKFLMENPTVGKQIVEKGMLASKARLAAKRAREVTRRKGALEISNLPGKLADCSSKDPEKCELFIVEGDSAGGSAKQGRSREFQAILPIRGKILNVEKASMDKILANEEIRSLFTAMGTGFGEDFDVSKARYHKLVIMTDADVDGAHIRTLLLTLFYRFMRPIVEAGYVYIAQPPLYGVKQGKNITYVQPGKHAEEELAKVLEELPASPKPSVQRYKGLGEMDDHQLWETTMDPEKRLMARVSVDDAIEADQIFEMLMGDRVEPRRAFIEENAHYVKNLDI"}},
  "data": [
    {"molecule": "CNc1cc(F)cc2c1[nH]c1nc(Oc3cnc(C)nc3)nc(N3C[C@H]4CCN[C@H]4C3)c12", "note": "[C3, 6-fluoro-4-((3aR,6aR)-hexahydropyrrolo[3,4-b]pyrrol-5(1H)-yl)-N-methyl-2-((2-methylpyrimidin-5-yl)oxy)-9H-pyrimido[4,5-b]indol-8-amine]", "values": [
      {"measurement": "Ki", "setting": "[1]", "result": "< 0.3", "unit": "nM"},
      {"measurement": "Ki", "setting": "[2]", "result": "< 0.1", "unit": "nM"},
      {"measurement": "Ki", "setting": "[3]", "result": "< 0.3", "unit": "nM"}
    ]}
  ]
}
